Reference: paper PMC9911399, “Two distinct binding modes provide the RNA-binding protein RbFox with extraordinary sequence specificity”
Residue numbers refer to the chain shown, from its start. Some of the results follow.

B1: GCAUGCU (DNA:RNA)
RNA: GGGAGACCGGAAUUCAGAUUGUCCGCAUGCUUUAAAUCCCGUCGUAGCCACCA
DNA 1: CAATCTGAATTCCGGTCTCCC
DNA 2: TGGTGGCTACGACGGGATT
B2: AUUAGUU (DNA:RNA)
RNA: B1 RNA with G25A, C26U, A27U, U28A, C30U
DNA 1: CAATCTGAATTCCGGTCTCCC
DNA 2: TGGTGGCTACGACGGGATT
B3: UUUGCAU (DNA:RNA)
RNA: B1 RNA with G25U, C26U, A27U, U28G, G29C, C30A
DNA 1: CAATCTGAATTCCGGTCTCCC
DNA 2: TGGTGGCTACGACGGGATT
B4: UUAUGCC (DNA:RNA)
RNA: B1 RNA with G25U, C26U, U31C
DNA 1: CAATCTGAATTCCGGTCTCCC
DNA 2: TGGTGGCTACGACGGGATT
B5: AAGUCCC (DNA:RNA)
RNA: B1 RNA with G25A, C26A, A27G, G29C, U31C
DNA 1: CAATCTGAATTCCGGTCTCCC
DNA 2: TGGTGGCTACGACGGGATT
B6: AUGGGUA (DNA:RNA)
RNA: B1 RNA with G25A, C26U, A27G, U28G, C30U, U31A
DNA 1: CAATCTGAATTCCGGTCTCCC
DNA 2: TGGTGGCTACGACGGGATT
B7: UCGACUA (DNA:RNA)
RNA: B1 RNA with G25U, A27G, U28A, G29C, C30U, U31A
DNA 1: CAATCTGAATTCCGGTCTCCC
DNA 2: TGGTGGCTACGACGGGATT
B8: CGUGCCA (DNA:RNA)
RNA: B1 RNA with G25C, C26G, A27U, U28G, G29C, U31A
DNA 1: CAATCTGAATTCCGGTCTCCC
DNA 2: TGGTGGCTACGACGGGATT
B9: UCAUUGU (DNA:RNA)
RNA: B1 RNA with G25U, G29U, C30G
DNA 1: CAATCTGAATTCCGGTCTCCC
DNA 2: TGGTGGCTACGACGGGATT
B10: GCAACUU (DNA:RNA)
RNA: B1 RNA with U28A, G29C, C30U
DNA 1: CAATCTGAATTCCGGTCTCCC
DNA 2: TGGTGGCTACGACGGGATT
B11: GAAUCGG (DNA:RNA)
RNA: B1 RNA with C26A, G29C, C30G, U31G
DNA 1: CAATCTGAATTCCGGTCTCCC
DNA 2: TGGTGGCTACGACGGGATT
B12: UCGGCCU (DNA:RNA)
RNA: B1 RNA with G25U, A27G, U28G, G29C
DNA 1: CAATCTGAATTCCGGTCTCCC
DNA 2: TGGTGGCTACGACGGGATT
B13: UUUAUAA (DNA:RNA)
RNA: GGGAGACCGGAAUUCAGAUUGUCCUUUAUAAUUAAAUCCCGUCGUAGCCACCA
DNA 1: CAATCTGAATTCCGGTCTCCC
DNA 2: TGGTGGCTACGACGGGATT
B14: CUCUUCG (DNA:RNA)
RNA: B1 RNA with G25C, C26U, A27C, G29U, U31G
DNA 1: CAATCTGAATTCCGGTCTCCC
DNA 2: TGGTGGCTACGACGGGATT
B15: CAUAGCG (DNA:RNA)
RNA: B1 RNA with G25C, C26A, A27U, U28A, U31G
DNA 1: CAATCTGAATTCCGGTCTCCC
DNA 2: TGGTGGCTACGACGGGATT
B16: CAUCCCU (DNA:RNA)
RNA: B1 RNA with G25C, C26A, A27U, U28C, G29C
DNA 1: CAATCTGAATTCCGGTCTCCC
DNA 2: TGGTGGCTACGACGGGATT
B17: GUGUGAC (DNA:RNA)
RNA: B1 RNA with C26U, A27G, C30A, U31C
DNA 1: CAATCTGAATTCCGGTCTCCC
DNA 2: TGGTGGCTACGACGGGATT
B18: GCUGCGC (DNA:RNA)
RNA: B1 RNA with A27U, U28G, G29C, C30G, U31C
DNA 1: CAATCTGAATTCCGGTCTCCC
DNA 2: TGGTGGCTACGACGGGATT
B19: UUUAAAU (DNA:RNA)
RNA: B13 RNA with U29A, A31U
DNA 1: CAATCTGAATTCCGGTCTCCC
DNA 2: TGGTGGCTACGACGGGATT
B20: CGUUUCC (DNA:RNA)
RNA: B1 RNA with G25C, C26G, A27U, G29U, U31C
DNA 1: CAATCTGAATTCCGGTCTCCC
DNA 2: TGGTGGCTACGACGGGATT
B21: CGUUCUG (DNA:RNA)
RNA: B1 RNA with G25C, C26G, A27U, G29C, C30U, U31G
DNA 1: CAATCTGAATTCCGGTCTCCC
DNA 2: TGGTGGCTACGACGGGATT
B22: AGUUCUU (DNA:RNA)
RNA: B1 RNA with G25A, C26G, A27U, G29C, C30U
DNA 1: CAATCTGAATTCCGGTCTCCC
DNA 2: TGGTGGCTACGACGGGATT
B23: CUGGUAU (DNA:RNA)
RNA: B13 RNA with U25C, U27G, A28G, A31U
DNA 1: CAATCTGAATTCCGGTCTCCC
DNA 2: TGGTGGCTACGACGGGATT
B24: GUCAAUC (DNA:RNA)
RNA: B13 RNA with U25G, U27C, U29A, A30U, A31C
DNA 1: CAATCTGAATTCCGGTCTCCC
DNA 2: TGGTGGCTACGACGGGATT
B25: UAAACAA (DNA:RNA)
RNA: B13 RNA with U26A, U27A, U29C
DNA 1: CAATCTGAATTCCGGTCTCCC
DNA 2: TGGTGGCTACGACGGGATT
B26: GUCUUCG (DNA:RNA)
RNA: B1 RNA with C26U, A27C, G29U, U31G
DNA 1: CAATCTGAATTCCGGTCTCCC
DNA 2: TGGTGGCTACGACGGGATT
B27: CCCUACU (DNA:RNA)
RNA: B1 RNA with G25C, A27C, G29A
DNA 1: CAATCTGAATTCCGGTCTCCC
DNA 2: TGGTGGCTACGACGGGATT
B28: GGUCGUU (DNA:RNA)
RNA: B1 RNA with C26G, A27U, U28C, C30U
DNA 1: CAATCTGAATTCCGGTCTCCC
DNA 2: TGGTGGCTACGACGGGATT
B29: ACAAUCG (DNA:RNA)
RNA: B1 RNA with G25A, U28A, G29U, U31G
DNA 1: CAATCTGAATTCCGGTCTCCC
DNA 2: TGGTGGCTACGACGGGATT
B30: GCUUCGA (DNA:RNA)
RNA: B1 RNA with A27U, G29C, C30G, U31A
DNA 1: CAATCTGAATTCCGGTCTCCC
DNA 2: TGGTGGCTACGACGGGATT
B31: AACUAAC (DNA:RNA)
RNA: B1 RNA with G25A, C26A, A27C, G29A, C30A, U31C
DNA 1: CAATCTGAATTCCGGTCTCCC
DNA 2: TGGTGGCTACGACGGGATT

Target: T1, RBFOX1 RRM (Homo sapiens, UniProt Q9NWB1 109-208)
T1 sequence: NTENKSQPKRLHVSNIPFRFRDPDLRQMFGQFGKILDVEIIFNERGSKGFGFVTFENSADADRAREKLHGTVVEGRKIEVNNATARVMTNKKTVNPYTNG
Test: EMSA; HiTS-Eq, 1 nM pool, 10 min; buffer printed only for the single-RNA assays: 10 mM Tris pH 7.5, 150 mM NaCl, 3.4 mM EDTA, 0.001% NP-40, 30 C
Conditions: tags: His6 N-terminal (pET28a); label: 5' 32P
Procedure, shortened: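 Purified RbFox RRM, wild type or mutant, was incubated for 10 min in 50 µL with 1 nM of a 5′-radiolabelled RNA pool carrying 7 randomized nucleotides, whose flanks were annealed to DNA oligonucleotides, over a series of increasing protein concentrations. Unbound RNA was resolved on 8% native PAGE, cut out, reverse-transcribed, barcoded by PCR and sequenced on an Illumina HiSeq 2500. Relative association constants were derived from changes in read counts for each RNA species versus the control reaction and normalised to the cognate motif.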

| Binder | binding signal |
| --- | --- |
| B1 | 0.779 KA relative to UGCAUGU |
| B2 | 0.00711 KA relative to UGCAUGU |
| B3 | 0.0269 KA relative to UGCAUGU |
| B4 | 0.00859 KA relative to UGCAUGU |
| B5 | 0.00273 KA relative to UGCAUGU |
| B6 | 0.0151 KA relative to UGCAUGU |
| B7 | 0.00732 KA relative to UGCAUGU |
| B8 | 0.0114 KA relative to UGCAUGU |
| B9 | 0.012 KA relative to UGCAUGU |
| B10 | 0.00823 KA relative to UGCAUGU |
| B11 | 0.0076 KA relative to UGCAUGU |
| B12 | 0.0155 KA relative to UGCAUGU |
| B13 | 0.00219 KA relative to UGCAUGU |
| B14 | 0.0117 KA relative to UGCAUGU |
| B15 | 0.00504 KA relative to UGCAUGU |
| B16 | 0.00062 KA relative to UGCAUGU |

| Binder | binding signal |
| --- | --- |
| B17 | 0.00747 KA relative to UGCAUGU |
| B18 | 0.0204 KA relative to UGCAUGU |
| B19 | 0.00331 KA relative to UGCAUGU |
| B20 | 0.0127 KA relative to UGCAUGU |
| B21 | 0.0207 KA relative to UGCAUGU |
| B22 | 0.00753 KA relative to UGCAUGU |
| B23 | 0.0153 KA relative to UGCAUGU |
| B24 | 0.00781 KA relative to UGCAUGU |
| B25 | 0.000916 KA relative to UGCAUGU |
| B26 | 0.0145 KA relative to UGCAUGU |
| B27 | 0.00609 KA relative to UGCAUGU |
| B28 | 0.0109 KA relative to UGCAUGU |
| B29 | 0.000509 KA relative to UGCAUGU |
| B30 | 0.0205 KA relative to UGCAUGU |
| B31 | 0.00138 KA relative to UGCAUGU |
